{"source": "the RNAGym collection of RNA variant scans (doi:10.7554/elife.90254)", "parents": {"B1": {"name": "OR4K15 (parent)", "chain": "GUUAACGGUCAUAGGCCAUGGAAACUAGGAGCACCAUUUCGCUGCCAGUGAAGAAAUGAACAAAGAAAAUCUGGGCCAGGCAGGCAUCAAAAGAAAUAGUCUUGCGCUCAACCAGAAAGUCUGUAAUCAUUUUAAGGGUA"}}, "note": "Read counts are not given, so values of variants with three or more changes are uncertain."}
{"variants_of": "B1", "assay": "self-cleavage, relative activity (ratio to wild type); higher = more cleavage; in vitro, sequencing; the parent is a self-cleaving ribozyme"}
{"variant": "G14U U49A A66G A110G A111G U132A", "self-cleavage": 0.01}
{"variant": "A13G A91G A94C", "self-cleavage": 0.46}
{"variant": "C16U A66U U102A U122C", "self-cleavage": 0.32}
{"variant": "A13U A24C A52G A54G A68G C112U A126C U130C", "self-cleavage": 0.01}
{"variant": "A13U A22G G50U A51U", "self-cleavage": 0.89}
{"variant": "C17U A27G C32U U49C U132C", "self-cleavage": 0.72}
{"variant": "C17U U38C A51G", "self-cleavage": 1.21}
{"variant": "A18G A52G U70C U72A U122A", "self-cleavage": 0.28}
{"variant": "A18G A33U A67G U100C", "self-cleavage": 2.53}
{"variant": "A13G U39C A140G", "self-cleavage": 1.83}
{"variant": "A13G A62G A67G A90G", "self-cleavage": 0.97}
{"variant": "G14A A23G U122A", "self-cleavage": 0.73}
{"variant": "A13C A23G A33G A52G U122C U127C", "self-cleavage": 0.04}
{"variant": "C17A U37C G50A", "self-cleavage": 1.28}
{"variant": "G14U A56G G83A A117G", "self-cleavage": 2.3}
{"variant": "A18G A27G U49C U103C U132C", "self-cleavage": 0.42}
{"variant": "A18G A24G A89U A96G U103C", "self-cleavage": 1.13}
{"variant": "A13U A23G U38C A98G U122C", "self-cleavage": 1.26}
{"variant": "G14A U57A U122C", "self-cleavage": 0.74}
{"variant": "A18G A60G A62G A98G A110G U122C", "self-cleavage": 0.09}
{"variant": "A13G U38C U72C", "self-cleavage": 0.76}
{"variant": "G14A U49C U131C", "self-cleavage": 0.67}
{"variant": "G14A A62G A117G", "self-cleavage": 1.1}
{"variant": "G15A C34A A95G", "self-cleavage": 0.66}
{"variant": "A13G A24C A51G A86G", "self-cleavage": 1.08}
{"variant": "U12C U102G A116G U122C", "self-cleavage": 0.15}
{"variant": "A18C U37C A129G", "self-cleavage": 1.17}
{"variant": "G15U A55G A90G", "self-cleavage": 0.86}
{"variant": "G14A U49C U108C", "self-cleavage": 0.01}
{"variant": "C16U A60G U139A", "self-cleavage": 0.37}
{"variant": "A18G A60G U132C", "self-cleavage": 1.38}
{"variant": "G14U A63G A78G A125U", "self-cleavage": 0.24}
{"variant": "A18G A22G A111G", "self-cleavage": 0.11}
{"variant": "C16U G83A U103C", "self-cleavage": 0.22}
{"variant": "A13G A68G A89G U132A", "self-cleavage": 1.14}
{"variant": "A18G A22G U38C A47U A82G", "self-cleavage": 0.86}
{"variant": "G14U A68G A82G", "self-cleavage": 0.61}
{"variant": "G14A U43C A60G", "self-cleavage": 1.58}
{"variant": "A13G A51G A69U U103C U127C U132C", "self-cleavage": 0.48}
{"variant": "U12C U49C A91U", "self-cleavage": 0.68}
{"variant": "A18G A33G G44A A82G U127C", "self-cleavage": 0.07}
{"variant": "A18G A23G U39C A96G G106U A129G", "self-cleavage": 0.01}
{"variant": "C16U A18G A55G A86G U100C", "self-cleavage": 1.81}
{"variant": "U12C U57C U87A", "self-cleavage": 1.29}
{"variant": "U12C U70C G136A", "self-cleavage": 0.36}
{"variant": "G14A G53A A63U A116G", "self-cleavage": 0.32}
{"variant": "A13G C32U A94G A116U", "self-cleavage": 0}
{"variant": "G15A A55G A116G", "self-cleavage": 0.29}
{"variant": "A13G A52U A111G U124C", "self-cleavage": 0.04}
{"variant": "A18G A30G U37G A51U U70C A135U", "self-cleavage": 0}
{"variant": "A18G A36G U133A", "self-cleavage": 1.85}
{"variant": "A13G A89G A117G", "self-cleavage": 1.67}
{"variant": "A18G A51G A82G U100G", "self-cleavage": 0.4}
{"variant": "C17U A18G U132C", "self-cleavage": 1.18}
{"variant": "A18C A23G A54G A63G U120C", "self-cleavage": 0.2}
{"variant": "A18G A52U U127A", "self-cleavage": 2.71}
{"variant": "A18G A54G U87A U120C A125C", "self-cleavage": 0.74}
{"variant": "G14A U43C A68G U100C U130C", "self-cleavage": 1.11}
{"variant": "A13G A33G A82G A114U", "self-cleavage": 0.08}
{"variant": "G15U A114G U130C", "self-cleavage": 0.15}
{"variant": "A13G A27G A52G A89U U100C", "self-cleavage": 2}
{"variant": "A13G U72C A125G A135G", "self-cleavage": 0.13}
{"variant": "A18G A54U A90G A135U", "self-cleavage": 0.68}
{"variant": "G14A A63G A129G", "self-cleavage": 0.89}
{"variant": "A13G A95G U103G", "self-cleavage": 0.25}
{"variant": "A13G U57C A78G", "self-cleavage": 0.74}
{"variant": "A18G A23G U102C", "self-cleavage": 1.78}
{"variant": "A18G A33G A54G", "self-cleavage": 0.28}
{"variant": "A13U A18C A22G A68G", "self-cleavage": 0.91}
{"variant": "A13G A69G A96U", "self-cleavage": 0.59}
{"variant": "A13G C81U U100C U108C", "self-cleavage": 0.04}
{"variant": "C17U U39C G119A U131C G138A", "self-cleavage": 1.85}
{"variant": "A18C A94U G99A A116G", "self-cleavage": 0.2}
{"variant": "G15A A52G A117G", "self-cleavage": 1.77}
{"variant": "G14A U102C A116G", "self-cleavage": 0.61}
{"variant": "A13G G41A A54G U139C", "self-cleavage": 0.9}
{"variant": "A13U U38C C46A U72A U132C", "self-cleavage": 0.31}
{"variant": "A13G A33G A78U A90G U108C U120C", "self-cleavage": 0.01}
{"variant": "A13G A110U U130C", "self-cleavage": 0.97}
{"variant": "A13G C105U A118G", "self-cleavage": 0.25}
{"variant": "A13G U39A A78G A111G", "self-cleavage": 0.09}
{"variant": "A18G A52G A54G A91U U100C U127C", "self-cleavage": 0.82}
{"variant": "A13G A18C A23U U43G A63G A90G", "self-cleavage": 1.14}
